About 550 (1.1%) of roughly 48,000 compounds were called active. Not shown: some 4% with an inconclusive outcome. Cut-off read from the data, not from the text of the source: active = potency below about 15 µM; inconclusive = mostly about 16 µM to 33 µM; inactive = weaker than that. The list shows a part of the results.
Biological target: Lysosomal acid glucosylceramidase (Homo sapiens) (UniProt P04062)
Test: Glucocerebrosidase;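 note: the screen sought inhibitors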
Conditions: purified enzyme, resorufin glucoside fluorescence (screen aimed at inhibitors), 20 min; series mostly up to 77 µM
How it was run: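 Normal human glucocerebrosidase (0.2 nM final) was assayed with resorufin β-D-glucopyranoside (30 uM final) in 50mM citric acid/KH2PO4, 10mM sodium taurocholate, 0.01% tween-20, pH 5.9. Compounds were titrated; fluorescence (Ex 548, Em 600) read after 20 min at RT.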
Potency is the fitted concentration of half-maximal effect.

Chain of UniProt P04062 (P04062 whole entry, looked up): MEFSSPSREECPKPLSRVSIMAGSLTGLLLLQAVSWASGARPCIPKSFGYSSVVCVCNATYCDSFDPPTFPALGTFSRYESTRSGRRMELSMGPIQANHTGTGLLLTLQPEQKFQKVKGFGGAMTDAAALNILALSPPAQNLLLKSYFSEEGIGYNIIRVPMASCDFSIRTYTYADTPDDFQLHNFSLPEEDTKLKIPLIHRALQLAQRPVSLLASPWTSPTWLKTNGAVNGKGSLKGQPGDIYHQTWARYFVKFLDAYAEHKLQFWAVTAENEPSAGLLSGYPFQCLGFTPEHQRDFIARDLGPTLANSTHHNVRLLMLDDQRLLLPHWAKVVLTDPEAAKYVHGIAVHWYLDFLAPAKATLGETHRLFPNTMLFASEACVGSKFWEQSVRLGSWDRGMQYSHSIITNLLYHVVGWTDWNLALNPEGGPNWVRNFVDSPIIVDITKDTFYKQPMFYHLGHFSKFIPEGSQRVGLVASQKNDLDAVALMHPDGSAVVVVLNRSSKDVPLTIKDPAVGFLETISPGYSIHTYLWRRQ

Potency, inactive:
Cc1cc(NC(=O)c2cc(S(=O)(=O)N3CCCCC3)ccc2C)n(-c2ccccn2)n1 > 76.9 µM, CS(=O)(=O)N(CC(=O)Nc1ccc2c(c1)OCO2)Cc1ccccc1 > 76.9 µM, CCOC(=O)Cc1csc(NC(=O)c2c(O)c3ccccc3n(C)c2=O)n1 > 76.9 µM, COCCn1c(C)cc(C(=O)CSc2nnc(C)s2)c1C > 76.9 µM, COc1cc(NS(=O)(=O)c2ccc(NC(=O)COc3ccccc3Cl)cc2)nc(OC)n1 > 76.9 µM, CCCN(CC(=O)c1cc(C)n(C)c1C)S(=O)(=O)c1cccc(C(F)(F)F)c1 > 76.9 µM, Cc1ccc(Nc2nc(N)nc(CN3CCN(C(=O)c4ccco4)CC3)n2)cc1Cl > 76.9 µM, CCN(CC)c1ccc(NC(=O)CSc2nc3ccccc3c(=O)[nH]2)cc1 > 76.9 µM, CCC1c2ccc(C)n2CCN1C(=O)Nc1ccccc1OC (stereo unspecified) > 76.9 µM, CCCCCCn1c(N2CCN(c3ccccc3)CC2)nc2c1c(=O)[nH]c(=O)n2C > 76.9 µM, Cc1ccccc1NC(=O)Cn1nnc(-c2ccc(N3CCOCC3)cc2)n1 > 76.9 µM, COc1cccc(C2C(C(=O)c3cccs3)=C(O)C(=O)N2CCN(C)C)c1OC (stereo unspecified) > 76.9 µM, COc1cc(C2C3C(C)N(C)C(=O)N(C)C3N(C)C(=O)N2C)ccc1O (stereo unspecified) > 76.9 µM, COc1ccccc1CN(C(=O)c1ccco1)C(C(=O)NC1CCCC1)c1ccncc1 (stereo unspecified) > 76.9 µM, O=C1Nc2ccc(Br)cc2C1(O)Cc1ccncc1 (stereo unspecified) > 76.9 µM, Cc1cc(C(F)(F)F)nn1CC(=O)N1CCCCC1C (stereo unspecified) > 76.9 µM, Cc1ccccc1N1C(=O)N(c2cccc(C(F)(F)F)c2)C2CS(=O)(=O)CC21 (stereo unspecified) > 76.9 µM, O=C(NCc1ccco1)C(c1cccnc1)N(C(=O)Cn1nnc2ccccc21)c1ccccc1 (stereo unspecified) > 76.9 µM, COCC(=O)N(Cc1cc2ccc(C)cc2[nH]c1=O)c1ccc(OC)cc1 > 76.9 µM, CCOC(=O)c1cc(-c2ccccc2)n(CC(=O)O)c1C > 76.9 µM, O=C(NC1CCCC1)c1ccc(CS(=O)(=O)c2cccc(C(F)(F)F)c2)o1 > 76.9 µM, Cn1nc(-c2ccccc2F)c2cc(C(=O)N3CCN(C(=O)c4ccco4)CC3)sc21 > 76.9 µM, COc1cccc(-c2nn(C)c3sc(C(=O)NCc4ccc(C)o4)cc23)c1 > 76.9 µM, O=C(Nn1cnnc1)c1cc2c(s1)CCCC2 > 76.9 µM, COc1cc(C2=NOC(C(=O)NCc3ccc(F)cc3)C2)cc(OC)c1OC (stereo unspecified) > 76.9 µM, COc1ccc(S(=O)(=O)N2CCCC2C(=O)NCc2cccs2)cc1 (stereo unspecified) > 76.9 µM, O=C1CNC(=O)/C1=C\N1CCCCC1, CCOC(=O)N1CCC(Nc2ncnc3c2cnn3-c2ccccc2)CC1, COc1ccc(NC(=O)NCc2cccnc2)cc1OC > 76.9 µM, Cc1nn(CC(=O)Nc2ccc3c(c2)nc(CN2CCCCC2)n3C)c(=O)c2ccccc12 > 76.9 µM, O=C(NCc1ccccc1Cl)c1cnn2cccnc12 > 76.9 µM, c1ccc(-c2noc(CN3CCN(C(c4ccccc4)c4ccccc4)CC3)n2)cc1 > 76.9 µM, CC1=C(C(=O)Nc2ccccc2)C(c2ccco2)n2ncnc2N1 (stereo unspecified) > 76.9 µM, CCN1CCN(CC(O)COc2cccc(OC)c2)CC1 (stereo unspecified) > 76.9 µM, Cc1ccc(OCC(=O)Nc2ccc(-c3nnc(-c4ccco4)o3)cc2)cc1 > 76.9 µM, C=CCNC(=O)c1ccc2c(c1)nnn2C > 76.9 µM, CCOc1ccc(-n2cnnn2)cc1S(=O)(=O)Nc1c(C)cccc1C > 76.9 µM, O=C(CSc1nnc(CNC(=O)c2ccco2)o1)c1ccc(Cl)cc1, COC(=O)CSc1nnc(SCc2ccc(OC)cc2)s1 > 76.9 µM, Cc1ccc(-c2nnn(CC(=O)N(CC(=O)NCC3CCCO3)c3ccc(F)c(Cl)c3)n2)o1 (stereo unspecified) > 76.9 µM, Cc1[nH]c(=O)[nH]c(=O)c1CSc1nnc([C@@H](NC(=O)OC(C)(C)C)C(C)C)o1 > 76.9 µM, COCCn1c(SCC(=O)OC(C)C)nnc1-c1ccccc1 > 76.9 µM, CCn1c2ccccc2c2nnc(SCC(=O)Nc3cc(C)on3)nc21 > 76.9 µM, CCc1nnc(NC(=O)CSc2nnc(-c3ccccc3NC(=O)c3ccccc3)o2)s1 > 76.9 µM, CCn1nc(NC(=O)c2cccnc2)c2cc3cccc(C)c3nc21 > 76.9 µM, NC(=O)C1CC(=O)N(Cc2ccc3c(c2)OCO3)C(=Nc2ccccc2)S1 (stereo unspecified) > 76.9 µM, O=S(=O)(c1ccccc1)c1nc(-c2ccco2)oc1N1CCOCC1 > 76.9 µM, O=C(CSc1nnc(-c2ccco2)n1Cc1ccccc1)c1ccccc1 > 76.9 µM, O=C(CC(C(=O)N1CCc2ccccc21)n1ccnc1)NCC1CCCO1 (stereo unspecified) > 76.9 µM, Clc1ccccc1-c1nnc2sc(-c3cccs3)nn12 > 76.9 µM, O=C(CCSc1nnc(-c2ccncc2)o1)Nc1ccc(Cl)cc1 > 76.9 µM, COc1ccc(C(CNC(=O)COc2ccccc2OC)N(C)C)cc1OC (stereo unspecified) > 76.9 µM, CC(C)N1C(=O)C2C(C(=O)NC3CCCCC3)C3C=CC2(O3)C1C(=O)NC1CCCCC1 (stereo unspecified) > 76.9 µM, CCn1cc(C(=O)NCc2ccco2)c(=O)c2cc(S(=O)(=O)N3CCCCCC3)ccc21 > 76.9 µM, O=C(O)CCC(=O)c1ccc2c(c1)OCCCO2 > 76.9 µM, Cn1c(=O)c2c(nc(OC/C=C/c3ccccc3)n2C)n(C)c1=O > 76.9 µM
